The results in this text go back to the supplement of paper PMC8728848.

The entries come from a sample that favours the strongest signals as a whole.

The test system of one assay is Fuc(a1-2)[GalNAc(a1-3)]Gal(b1-3)GlcNAc. Description: glycan array binding signal (z-score within array); higher = stronger binding. Conditions: glycan notation: IUPAC condensed, linker removed. In short, it runs like this:
(§1)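 From the Consortium for Functional Glycomics database, 3228 arrays were curated, keeping only those whose protein sequence was available. Binding is given as a within-array Z-score averaged across arrays sharing a protein sequence and across linkers. Negative Z-scores can be read as non-binding.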
In the case of VWF (Homo sapiens) (chain not printed), the “glycan array binding signal (z-score)” value turned out to be 5.17. The same measure, in the same setting: with “Galectin-8 C-terminal CRD (Homo sapiens) (chain not printed)” the figure was 6.98. Still for that read-out and setting: with “M-Ficolin (Homo sapiens) (chain not printed)” the figure was -0.209; with “Gal 8 long (Homo sapiens) (chain not printed)”, 4.

The next assay deals with Fuc(a1-2)[GalNAc(a1-3)]Gal(b1-4)GlcNAc(b1-2)Man(a1-3)[Fuc(a1-2)[GalNAc(a1-3)]Gal(b1-4)GlcNAc(b1-2)Man(a1-6)]Man(b1-4)GlcNAc(b1-4)GlcNAc. Described as above. Conditions: glycan notation: IUPAC condensed, linker removed. In short, it runs like this: as §1
As to “M-Ficolin G221F (Homo sapiens) (chain not printed)”, the “glycan array binding signal (z-score)” value was -0.176. As to “M-Ficolin (Homo sapiens) (chain not printed)”, the “glycan array binding signal (z-score)” value was -0.186. On the same count and under the same terms, with “Meso764 (Homo sapiens) (chain not printed)” the figure was 4.21.

A further assay relates to Fuc(a1-2)[GalNAc(a1-3)]Gal(b1-4)Glc. The assay is described as above. Particulars: glycan notation: IUPAC condensed, linker removed. In short, it runs like this:
as §1
As for “H-Ficolin (Homo sapiens) (chain not printed)”, the “glycan array binding signal (z-score)” value is -0.424.

On to VWF (Homo sapiens) (chain not printed), for which the “glycan array binding signal (z-score)” value came out at 6.78. “Galectin-8 C-terminal CRD (Homo sapiens) (chain not printed)”: the “glycan array binding signal (z-score)” value is 4.29. In the case of “Thrombomodulin Extracellular (Homo sapiens) (chain not printed)”, the “glycan array binding signal (z-score)” value is -0.404.

For another assay, the system named is Fuc(a1-2)[GalNAc(a1-3)]Gal(b1-4)[Fuc(a1-3)]GlcNAc. The assay is described as above. Particulars: glycan notation: IUPAC condensed, linker removed. An outline of the steps:
as §1
Regarding “M-Ficolin G221F (Homo sapiens) (chain not printed)”, the “glycan array binding signal (z-score)” value was -0.178. For the substance “Serum Amyloid P component (Homo sapiens) (chain not printed)”, the “glycan array binding signal (z-score)” value is -0.491. Still for that read-out and setting: under “Siglec-2 (Homo sapiens) (chain not printed)” stands 0.034. As to “M-Ficolin Y271F (Homo sapiens) (chain not printed)”, the “glycan array binding signal (z-score)” value was 0.249.
